Measurements published in patent publication US11000038B2, “Pyridone compounds and agricultural and horticultural fungicides containing the same as active ingredients” (priority 2017, dated 2021).

Assays:
[1] = test system: rice blast fungi (Magnaporthe grisea); type: in vivo; settings: rice blast, spray treatment
[2] = test system: tomato late blight fungi (Phytophthora infestans); type: in vivo; settings: tomato late blight, spray treatment
[3] = test system: cucumber anthracnose fungi (Colletotrichum orbiculare); assay: Test Example H: cucumber anthracnose, spray treatment of cucumber plants; settings: cucumber anthracnose, 250 ppm spray, 6 to 10 days after inoculation

| SMILES | Test A control value [1] | Test F control value [2] | Test H control value [3] |
| --- | --- | --- | --- |
| Cc1c(Cl)cccc1-n1cc(C)c(=O)c(C)c1-c1ccccc1 [Compound 484] | L (L shows the control value of 50% or less) | L (L shows the control value of 50% or less) | H (H shows the control value of more than 50%) |
| CCc1ccccc1-n1cc(C)c(=O)c(C)c1-c1c(F)cccc1F [Compound 485] | H (H shows the control value of more than 50%) | L (L shows the control value of 50% or less) | H (H shows the control value of more than 50%) |
| Cc1ccc(Cl)cc1-n1cc(C)c(=O)c(C)c1-c1c(F)cccc1F [Compound 486] | L (L shows the control value of 50% or less) | L (L shows the control value of 50% or less) | L (L shows the control value of 50% or less) |
| Cc1ccc(Br)cc1-n1cc(C)c(=O)c(C)c1-c1c(F)cccc1F [Compound 487] | H (H shows the control value of more than 50%) | L (L shows the control value of 50% or less) | L (L shows the control value of 50% or less) |
| CCc1ccccc1-n1cc(Br)c(=O)c(CC)c1-c1c(F)cc(F)cc1F [Compound 488] | H (H shows the control value of more than 50%) | L (L shows the control value of 50% or less) | H (H shows the control value of more than 50%) |
| CCc1ccccc1-n1cc(C)c(=O)c(CC)c1-c1c(F)cc(F)cc1F [Compound 489] | H (H shows the control value of more than 50%) | H (H shows the control value of more than 50%) | H (H shows the control value of more than 50%) |
| CCc1c(-c2c(F)cc(F)cc2F)n(-c2ccccc2Cl)cc(Br)c1=O [Compound 490] | H (H shows the control value of more than 50%) | H (H shows the control value of more than 50%) | H (H shows the control value of more than 50%) |
| CCc1c(-c2c(F)cc(F)cc2F)n(-c2ccccc2Cl)cc(C)c1=O [Compound 491] | H (H shows the control value of more than 50%) | L (L shows the control value of 50% or less) | H (H shows the control value of more than 50%) |
| CCc1c(-c2c(F)cc(F)cc2F)n(-c2ccccc2)cc(Br)c1=O [Compound 492] | H (H shows the control value of more than 50%) | L (L shows the control value of 50% or less) | H (H shows the control value of more than 50%) |
| CCc1c(-c2c(F)cc(F)cc2F)n(-c2ccccc2)cc(C)c1=O [Compound 493] | H (H shows the control value of more than 50%) | L (L shows the control value of 50% or less) | H (H shows the control value of more than 50%) |
| Cc1c(Cl)cccc1-n1cc(C)c(=O)c(C)c1-c1c(F)cccc1F [Compound 494] | H (H shows the control value of more than 50%) | L (L shows the control value of 50% or less) | H (H shows the control value of more than 50%) |
| CCc1c(-c2c(F)cccc2F)n(-c2cccc(C)c2C)cc(Br)c1=O [Compound 495] | L (L shows the control value of 50% or less) | L (L shows the control value of 50% or less) | L (L shows the control value of 50% or less) |
| Cc1c(Br)cccc1-n1cc(C)c(=O)c(C)c1-c1c(F)cccc1F [Compound 496] | H (H shows the control value of more than 50%) | L (L shows the control value of 50% or less) | L (L shows the control value of 50% or less) |
| CCc1c(-c2c(F)cccc2F)n(-c2cccc(C)c2C)cc(C)c1=O [Compound 497] | H (H shows the control value of more than 50%) | L (L shows the control value of 50% or less) | L (L shows the control value of 50% or less) |
| CCc1ccccc1-n1cc(Br)c(=O)c(CC)c1-c1ccccc1 [Compound 498] | H (H shows the control value of more than 50%) | L (L shows the control value of 50% or less) | L (L shows the control value of 50% or less) |
| CCc1c(-c2ccccc2)n(-c2cc(Br)ccc2C)cc(Br)c1=O [Compound 499] | H (H shows the control value of more than 50%) | L (L shows the control value of 50% or less) | L (L shows the control value of 50% or less) |
| Cc1ccccc1-n1cc(C)c(=O)c(C)c1-c1c(F)cccc1F [Compound 500] | H (H shows the control value of more than 50%) | L (L shows the control value of 50% or less) | H (H shows the control value of more than 50%) |
| CCc1c(-c2c(F)cccc2F)n(-c2cc(Cl)ccc2C)cc(Br)c1=O [Compound 501] | H (H shows the control value of more than 50%) | L (L shows the control value of 50% or less) | L (L shows the control value of 50% or less) |
| CCc1c(-c2ccccc2)n(-c2cccc(C)c2C)cc(Br)c1=O [Compound 502] | L (L shows the control value of 50% or less) | L (L shows the control value of 50% or less) | L (L shows the control value of 50% or less) |
| CCc1c(-c2ccccc2)n(-c2cccc(C)c2C)cc(C)c1=O [Compound 503] | L (L shows the control value of 50% or less) | L (L shows the control value of 50% or less) | H (H shows the control value of more than 50%) |
| CCc1c(-c2ccccc2)n(-c2cc(OC)ccc2C)cc(Br)c1=O [Compound 504] | L (L shows the control value of 50% or less) | L (L shows the control value of 50% or less) | H (H shows the control value of more than 50%) |
| CCc1c(-c2ccccc2)n(-c2cccc(F)c2C)cc(Br)c1=O [Compound 505] | L (L shows the control value of 50% or less) | L (L shows the control value of 50% or less) | H (H shows the control value of more than 50%) |
| CCc1c(-c2ccccc2)n(-c2cccc(Cl)c2C)cc(Br)c1=O [Compound 506] | H (H shows the control value of more than 50%) | L (L shows the control value of 50% or less) | L (L shows the control value of 50% or less) |
| CCc1c(-c2c(F)cccc2F)n(-c2ccccc2C)cc(Br)c1=O [Compound 507] | L (L shows the control value of 50% or less) | L (L shows the control value of 50% or less) | L (L shows the control value of 50% or less) |
| CCc1c(-c2c(F)cccc2F)n(-c2ccccc2C)cc(C)c1=O [Compound 508] | H (H shows the control value of more than 50%) | L (L shows the control value of 50% or less) | H (H shows the control value of more than 50%) |
| CCc1ccccc1-n1cc(Br)c(=O)c(CC)c1-c1c(F)cccc1F [Compound 509] | H (H shows the control value of more than 50%) | L (L shows the control value of 50% or less) | H (H shows the control value of more than 50%) |
| CCc1ccccc1-n1cc(C)c(=O)c(CC)c1-c1c(F)cccc1F [Compound 510] | H (H shows the control value of more than 50%) | L (L shows the control value of 50% or less) | H (H shows the control value of more than 50%) |
| CCc1c(-c2c(F)cccc2F)n(-c2ccccc2Cl)cc(Br)c1=O [Compound 511] | L (L shows the control value of 50% or less) | L (L shows the control value of 50% or less) | H (H shows the control value of more than 50%) |
| CCc1c(-c2c(F)cccc2F)n(-c2ccccc2Cl)cc(C)c1=O [Compound 512] | H (H shows the control value of more than 50%) | L (L shows the control value of 50% or less) | H (H shows the control value of more than 50%) |
| CCc1c(-c2c(F)cc(F)cc2F)n(-c2cccc(OC)c2C)cc(Br)c1=O [Compound 513] | H (H shows the control value of more than 50%) | L (L shows the control value of 50% or less) | H (H shows the control value of more than 50%) |
